# This is one part of the list.
# B1: chr12:909583:909684:+|3pUTR|ENSG00000060237|unk|total|mutant (ssRNA)
# RNA: GGGAGUUCUACAGUCCGACGAUCCCGCUCUGUCCUUUACUUAUUGAGACACUUUAACUUUUUCCUUUGUAUUUCCAUUGUAUCCGAUAAAUAAAUGUGAAUGUAAAAUUGUAUAAAUUACUGUACUUGAAUACUUCUGUUUCCCAACAGAGGAUUGAGCAUCA
# B2: ENSG00000198589:be:win_2451|CDS|ENSG00000198589|bound_else_gene|NA|bound_elsewhere_windowed (ssRNA)
# RNA: GGGAGUUCUACAGUCCGACGAUCGAUACUAAAAGUAAUUGCGACCCUACUUCGAAAUUCUCCCCAGUGCCCAGAGAGCAUGGAGGUUCGCAGAGCCUUUCUUUCUGACAUGAUUAAACUUUUUAAUAACAGUAGAGAAAACAGCAACAGAGGAUUGAGCAUCA
# B3: ENSG00000112146:stop:overlap|stop_codon|ENSG00000112146|stop_codon|NA|stop_codon (ssRNA)
# RNA: GGGAGUUCUACAGUCCGACGAUCACACCCCCUUGUUCUUCGCCAGAGUAAGGAGCUACACAGCUUUCUCAGAAAGGCCUCUGUAGAGCCUCAAGUCCAGUCCUCUAUCACUUUUGCAUGAAUUAAAGUAUAUAGCGCAAAAGACAACAGAGGAUUGAGCAUCA
# B4: chr1:225496770:225496921:-|3pUTR|ENSG00000154380|msi1|total|mutant (ssRNA)
# RNA: GGGAGUUCUACAGUCCGACGAUCUUUUUUAAUUGCAGACAGUAAUGCAUGUCACACUAAUAUGCCGUGGCCUUUUCAAGGCCCCGUCCCAGGGAAAACAUUUUGCCGAGUACCGGGGAGUGGGAGGAAGGGGAGGAAUAAUUUCAACAGAGGAUUGAGCAUCA
# B5: chr9:96387934:96388035:-|3pUTR|ENSG00000165244|msi1|FALSE|unique (ssRNA)
# RNA: GGGAGUUCUACAGUCCGACGAUCAAUAUUUUGUAAAUAUGGACUGCACAGUACAGGGUAGAAAACUACAUAUUGUGGGAAGCUAGAUUUUGCAAGUUUAAUGCAUUCAUUGGAAGCAGUUCUCACAGGAAGCACUUUCUGAAUCAACAGAGGAUUGAGCAUCA
# B6: chr17:57974666:57974767:-|CDS|ENSG00000136451|msi1|FALSE|bound_elsewhere (ssRNA)
# RNA: GGGAGUUCUACAGUCCGACGAUCGAGCAUGAGAAGUCCAGUAAAUGUUUCAAGUGCAGUUAACAUAACCAGCCCAAUGAACAUAGGGCAUCCUGUAACUAUAACCAGUCCAUUAUCCAUGACCUCUCCUUUAACACUCACUACCAACAGAGGAUUGAGCAUCA
# B7: chr15:42745797:42746257:-|CDS|ENSG00000128881|control|control|control (ssRNA)
# RNA: GGGAGUUCUACAGUCCGACGAUCAGUCCCAGUGCCUCUCCUCGAAGCUCAUCCUUGCCUCGCACGUCUAGUUCCUCACCAUCUAGGGCUGGACGGCCCCACCAUGACCAGAGGAGUUCGUCCCCACAUCUGGGGAGAAGCAAGCAACAGAGGAUUGAGCAUCA
# B8: chr3:87253716:87253817:+|CDS|ENSG00000083937|unk|FALSE|unique (ssRNA)
# RNA: GGGAGUUCUACAGUCCGACGAUCUGCCUCUACUUCAAAGGCUACAAUCUCAGAUGAAGAGAUUGAACGGCAACUCAAGGCUUUAGGAGUAGAUUAGUCAAAAGAAGUCAUACUAUUUUGCUUACUUAUAAUUAUGUAGUAUAACAACAGAGGAUUGAGCAUCA
# B9: chr12:106067485:106067586:-|CDS|ENSG00000074590|msi1|FALSE|unique (ssRNA)
# RNA: GGGAGUUCUACAGUCCGACGAUCCCUGAAGAAGCGAAGCAACAGCGAGCAUCGCUCUCACAGCACUGGCUUCAUUGAAGGUGUAGUUGGUCCUGCCUUACCCUCUACUUUCAAGAUGGAGCAGGACUUGUGCAGGACUGGCGUCAACAGAGGAUUGAGCAUCA
# B10: chr21:46004801:46004902:+|3pUTR|ENSG00000142156|msi1|FALSE|unique (ssRNA)
# RNA: GGGAGUUCUACAGUCCGACGAUCAGACUGGGGCCUGGACUGGACAUGAGAGCCCCUUGGUGCCACAGAGGGCUGUGUCUUACUAGAAACAACGCAAACCUCUCCUUCCUCAGAAUAGUGAUGUGUUCGACGUUUUAUCAAAGGCAACAGAGGAUUGAGCAUCA
# B11: chr1:61455842:61455953:+|3pUTR|ENSG00000162599|unk|FALSE|unique (ssRNA)
# RNA: GGGAGUUCUACAGUCCGACGAUCUUUUCUGUAACAUAUUGGAAAAAGAAAAUGCAGUUAUAUUCCUUUUUUAUUUGUUCCUUUAGUUUGUUUUGGUUCAGCAGUCAGCAGUUAAGUAUAUAACAUGGCCCGCAAGGACAAUGACAACAGAGGAUUGAGCAUCA
# B12: chr8:19954154:19954263:+|CDS|ENSG00000175445|unk|total|mutant (ssRNA)
# RNA: GGGAGUUCUACAGUCCGACGAUCACCUAACUUUGAGUAUGCAGAAGCCCCGAGUCGUCUUUCUCCUGAUGAUGCAGAUUUUGCCGACGUCUUACACACAUUCACCAGAGGGUCCCCUGGUCGAAGCAUUGGAAUCCAGAAACCCAACAGAGGAUUGAGCAUCA
# B13: chr6:142752714:142752806:-|3pUTR|ENSG00000010818|msi1_unk|total|mutant (ssRNA)
# RNA: GGGAGUUCUACAGUCCGACGAUCUUUUCUUUACUUUGCUUAUAUUCUUAUAAGCAUUUUUCCGCAGUAAUUUGUACAUAUUUCCGAAUUUGUGUAUCUGCUUUGUAAUAAAUGUAAUUUCUUUCCUUUUUUGGACACUUGGAUCAACAGAGGAUUGAGCAUCA
# B14: chr1:202726062:202726163:-|3pUTR|ENSG00000117139|unk|total|mutant (ssRNA)
# RNA: GGGAGUUCUACAGUCCGACGAUCGAAAUGCACCUGAUUUGCCAUUAUACCCACCAUCAAAAGCAACAUGGCCCUUUGGGUAUCCGUGCAAGAUCCGCCUAAGAACCGAGCCGAUCUCUACCUGGAAGAGGGUGAAACAUGGCUCAACAGAGGAUUGAGCAUCA
# Biological target: MSI1 full-length (mouse, UniProt Q61474 1-362)
# Sequence of UniProt Q61474 (Q61474 whole entry): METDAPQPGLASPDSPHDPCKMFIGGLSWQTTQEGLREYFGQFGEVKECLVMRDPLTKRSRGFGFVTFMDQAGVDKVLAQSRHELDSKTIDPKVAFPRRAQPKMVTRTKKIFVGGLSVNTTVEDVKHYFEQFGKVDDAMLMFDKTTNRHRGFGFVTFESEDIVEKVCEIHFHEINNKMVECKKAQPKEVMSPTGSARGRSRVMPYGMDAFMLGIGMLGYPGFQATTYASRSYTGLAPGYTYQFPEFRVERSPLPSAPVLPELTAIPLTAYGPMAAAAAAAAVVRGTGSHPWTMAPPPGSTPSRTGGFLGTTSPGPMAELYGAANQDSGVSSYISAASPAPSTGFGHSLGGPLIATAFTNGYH
# Test: nsRBNS (natural sequence RNA bind-n-seq); RBNS binding buffer (assumed for nsRBNS): 25 mM Tris pH 7.5, 150 mM KCl, 3 mM MgCl2, 0.01% Triton X-100, 500 ug/ml BSA, 20 U/ml SUPERase-In, 4 C; UNK is unkempt and MSI1 is Musashi-1; names of the RNAs are library labels; protein concentration not given here; high values mean tight binding
row,Binder,binding signal [enrichment R]
1,B1,3.1
2,B2,0.961
3,B3,0.583
4,B4,0.618
5,B5,0.404
6,B6,0.639
7,B7,0.361
8,B8,3.62
9,B9,0.282
10,B10,0.891
11,B11,1.53
12,B12,0.588
13,B13,0.478
14,B14,0.333

# — publication PMC12136788
